This passage reports binding results from article PMC11790891.

Sequences of proteins named here, by UniProt entry; tags and fusion partners are left off. A change or cut given only in a name is not applied to a line headed by its entry.
UniProt Q14683: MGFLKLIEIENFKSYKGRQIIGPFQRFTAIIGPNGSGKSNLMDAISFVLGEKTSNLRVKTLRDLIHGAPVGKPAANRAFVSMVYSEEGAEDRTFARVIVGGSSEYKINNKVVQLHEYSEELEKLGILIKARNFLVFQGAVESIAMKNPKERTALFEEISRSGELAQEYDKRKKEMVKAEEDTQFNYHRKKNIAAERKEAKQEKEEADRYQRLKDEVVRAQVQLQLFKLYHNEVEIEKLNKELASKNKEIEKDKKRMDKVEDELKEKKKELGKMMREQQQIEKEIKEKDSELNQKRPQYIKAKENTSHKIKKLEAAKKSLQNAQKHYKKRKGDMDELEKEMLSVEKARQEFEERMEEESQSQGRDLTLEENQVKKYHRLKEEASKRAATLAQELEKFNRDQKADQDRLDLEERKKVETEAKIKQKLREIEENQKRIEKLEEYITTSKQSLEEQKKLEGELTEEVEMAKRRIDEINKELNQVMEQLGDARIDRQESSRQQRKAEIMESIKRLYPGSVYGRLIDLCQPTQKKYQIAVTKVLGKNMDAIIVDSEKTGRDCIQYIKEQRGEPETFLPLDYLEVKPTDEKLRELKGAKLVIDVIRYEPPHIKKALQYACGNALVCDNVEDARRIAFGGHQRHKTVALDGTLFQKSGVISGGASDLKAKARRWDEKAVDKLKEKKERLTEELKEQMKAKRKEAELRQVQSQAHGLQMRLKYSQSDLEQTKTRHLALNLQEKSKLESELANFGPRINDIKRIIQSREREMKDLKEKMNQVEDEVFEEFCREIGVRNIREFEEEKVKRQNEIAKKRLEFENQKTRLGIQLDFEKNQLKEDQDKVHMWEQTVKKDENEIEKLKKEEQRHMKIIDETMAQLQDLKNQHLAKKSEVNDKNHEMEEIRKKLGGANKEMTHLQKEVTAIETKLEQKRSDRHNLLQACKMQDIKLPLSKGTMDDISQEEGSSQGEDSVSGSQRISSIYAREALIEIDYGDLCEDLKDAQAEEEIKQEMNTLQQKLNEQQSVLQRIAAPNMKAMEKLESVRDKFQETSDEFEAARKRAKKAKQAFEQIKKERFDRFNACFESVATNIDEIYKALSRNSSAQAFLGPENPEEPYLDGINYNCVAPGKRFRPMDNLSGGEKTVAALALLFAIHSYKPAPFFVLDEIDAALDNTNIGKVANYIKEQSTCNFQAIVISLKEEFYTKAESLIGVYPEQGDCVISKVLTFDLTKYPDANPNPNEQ
UniProt Q9UQE7: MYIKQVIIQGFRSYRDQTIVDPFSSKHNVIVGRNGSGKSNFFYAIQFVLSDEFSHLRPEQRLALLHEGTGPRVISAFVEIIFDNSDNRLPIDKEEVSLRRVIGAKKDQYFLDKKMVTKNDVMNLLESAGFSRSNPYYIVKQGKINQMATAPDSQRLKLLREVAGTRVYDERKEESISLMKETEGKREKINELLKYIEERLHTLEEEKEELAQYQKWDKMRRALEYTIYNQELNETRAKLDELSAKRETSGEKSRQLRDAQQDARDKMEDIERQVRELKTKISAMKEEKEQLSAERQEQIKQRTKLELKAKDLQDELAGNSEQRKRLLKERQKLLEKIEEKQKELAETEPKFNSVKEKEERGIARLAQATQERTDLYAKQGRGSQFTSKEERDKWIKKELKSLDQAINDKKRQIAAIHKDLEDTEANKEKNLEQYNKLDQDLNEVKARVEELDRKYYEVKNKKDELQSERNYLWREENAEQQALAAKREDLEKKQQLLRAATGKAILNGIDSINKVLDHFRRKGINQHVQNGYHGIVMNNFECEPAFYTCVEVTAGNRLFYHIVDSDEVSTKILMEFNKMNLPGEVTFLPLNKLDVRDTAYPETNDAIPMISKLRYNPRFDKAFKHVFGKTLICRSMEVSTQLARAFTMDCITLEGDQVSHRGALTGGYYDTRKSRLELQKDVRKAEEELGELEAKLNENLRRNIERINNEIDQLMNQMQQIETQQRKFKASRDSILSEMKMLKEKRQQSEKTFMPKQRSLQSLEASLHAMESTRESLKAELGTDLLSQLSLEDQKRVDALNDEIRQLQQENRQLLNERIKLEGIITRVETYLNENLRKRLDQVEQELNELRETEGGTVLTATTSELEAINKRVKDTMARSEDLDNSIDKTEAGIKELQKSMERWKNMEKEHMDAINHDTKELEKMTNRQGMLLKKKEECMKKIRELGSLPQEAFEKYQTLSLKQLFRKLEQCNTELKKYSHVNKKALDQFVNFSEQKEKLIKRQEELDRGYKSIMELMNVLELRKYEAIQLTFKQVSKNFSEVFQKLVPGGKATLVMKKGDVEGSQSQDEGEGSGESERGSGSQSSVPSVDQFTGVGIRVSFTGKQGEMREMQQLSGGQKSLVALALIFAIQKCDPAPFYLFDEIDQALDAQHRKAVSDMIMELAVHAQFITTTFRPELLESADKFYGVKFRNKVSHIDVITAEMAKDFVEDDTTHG
UniProt O60216: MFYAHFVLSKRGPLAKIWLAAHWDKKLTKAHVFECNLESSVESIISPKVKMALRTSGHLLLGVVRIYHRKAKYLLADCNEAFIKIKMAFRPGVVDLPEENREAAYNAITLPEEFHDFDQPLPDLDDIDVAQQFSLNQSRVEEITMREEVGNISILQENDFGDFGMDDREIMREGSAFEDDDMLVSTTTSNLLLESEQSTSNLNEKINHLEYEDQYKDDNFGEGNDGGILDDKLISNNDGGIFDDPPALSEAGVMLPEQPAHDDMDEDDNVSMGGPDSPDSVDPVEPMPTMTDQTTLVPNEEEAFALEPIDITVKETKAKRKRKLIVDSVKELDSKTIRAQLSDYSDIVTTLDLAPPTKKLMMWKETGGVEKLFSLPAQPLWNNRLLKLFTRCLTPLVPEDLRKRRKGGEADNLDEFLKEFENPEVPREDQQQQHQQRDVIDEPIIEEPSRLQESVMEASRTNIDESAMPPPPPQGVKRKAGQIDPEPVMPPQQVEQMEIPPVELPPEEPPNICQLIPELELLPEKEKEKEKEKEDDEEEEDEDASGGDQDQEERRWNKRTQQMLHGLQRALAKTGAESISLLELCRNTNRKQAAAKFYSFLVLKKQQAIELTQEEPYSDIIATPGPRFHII
UniProt Q8WVM7: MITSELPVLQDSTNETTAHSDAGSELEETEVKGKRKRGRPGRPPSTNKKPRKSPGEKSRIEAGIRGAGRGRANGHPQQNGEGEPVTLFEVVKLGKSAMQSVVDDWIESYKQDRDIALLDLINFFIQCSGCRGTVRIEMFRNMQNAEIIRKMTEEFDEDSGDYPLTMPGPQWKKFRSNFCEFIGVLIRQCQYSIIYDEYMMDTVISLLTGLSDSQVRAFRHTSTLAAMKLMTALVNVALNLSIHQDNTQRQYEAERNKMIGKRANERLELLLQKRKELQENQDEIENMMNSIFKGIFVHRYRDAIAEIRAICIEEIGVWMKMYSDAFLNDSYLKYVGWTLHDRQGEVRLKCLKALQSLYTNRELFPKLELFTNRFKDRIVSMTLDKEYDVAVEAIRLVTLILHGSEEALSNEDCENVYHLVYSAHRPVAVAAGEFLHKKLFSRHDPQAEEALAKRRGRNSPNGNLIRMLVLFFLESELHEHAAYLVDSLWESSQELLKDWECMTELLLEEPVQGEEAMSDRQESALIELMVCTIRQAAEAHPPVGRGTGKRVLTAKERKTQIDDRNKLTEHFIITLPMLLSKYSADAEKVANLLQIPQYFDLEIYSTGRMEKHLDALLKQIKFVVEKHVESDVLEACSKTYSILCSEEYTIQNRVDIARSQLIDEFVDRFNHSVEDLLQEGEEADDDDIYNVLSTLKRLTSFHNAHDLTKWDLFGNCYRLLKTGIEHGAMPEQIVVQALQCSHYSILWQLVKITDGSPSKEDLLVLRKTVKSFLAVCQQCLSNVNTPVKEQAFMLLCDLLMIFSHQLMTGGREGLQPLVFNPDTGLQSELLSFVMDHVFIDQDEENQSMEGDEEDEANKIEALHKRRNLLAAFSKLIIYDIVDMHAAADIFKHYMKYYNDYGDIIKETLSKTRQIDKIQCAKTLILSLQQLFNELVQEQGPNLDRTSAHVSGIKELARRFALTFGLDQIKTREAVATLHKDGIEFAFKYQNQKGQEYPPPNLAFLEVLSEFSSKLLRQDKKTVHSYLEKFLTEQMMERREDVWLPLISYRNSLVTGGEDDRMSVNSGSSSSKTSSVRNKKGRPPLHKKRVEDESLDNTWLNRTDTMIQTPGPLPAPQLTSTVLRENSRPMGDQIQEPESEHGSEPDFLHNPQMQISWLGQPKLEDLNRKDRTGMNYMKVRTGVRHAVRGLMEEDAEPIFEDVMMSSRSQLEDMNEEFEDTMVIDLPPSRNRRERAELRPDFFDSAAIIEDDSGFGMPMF

These are yes or no findings as the source states them, for the method shown. Some binding calls cover weakened binding; strength is not graded here. Tags and fused reporters may be left off the sequences shown.

To fix the notation:
B1: His-Phf2 Δ3 (residues 660-819 deleted) (protein, UniProt O75151)
chain: MATVPVYCVCRLPYDVTRFMIECDACKDWFHGSCVGVEEEEAPDIDIYHCPNCEKTHGKSTLKKKRTWHKHGPGQAPDVKPVQNGSQLFIKELRSRTFPSAEDVVARVPGSQLTLGYMEEHGFTEPILVPKKDGLGLAVPAPTFYVSDVENYVGPERSVDVTDVTKQKDCKMKLKEFVDYYYSTNRKRVLNVTNLEFSDTRMSSFVEPPDIVKKLSWVENYWPDDALLAKPKVTKYCLICVKDSYTDFHIDSGGASAWYHVLKGEKTFYLIRPASANISLYERWRSASNHSEMFFADQVDKCYKCIVKQGQTLFIPSGWIYATLTPVDCLAFAGHFLHSLSVEMQMRAYEVERRLKLGSLTQFPNFETACWYMGKHLLEAFKGSHKSGKQLPPHLVQGAKILNGAFRSWTKKQALAEHEDELPEHFKPSQLIKDLAKEIRLSENASKAVRPEVNTVASSDEVCDGDREKEEPPSPIEATPPQSLLEKVSKKKTPKTVKMPKPSKIPKPPKPPKPPRPPKTLKLKDGGKKKGKKSRESASPTIPNLDLLEAHTKEALTKMEPPKKGKATKSVLSVPNKDVVHMQNDVERLEIREQTKSKSEAKWKYKNSKPDSLLKMEEEQKLEKSPLAGNKDNKFSFSFSNKKLLGSKALRPPTSPGVFAKGSSLAAHGARKNGGGSGKSAGKRLLKRAAKNSVDLDDYEEEQDHLDACFKDSDYVYPSLESDEDNPIFKSRSKKRKGSDDAPYSPTARVGPSVPRQDRPVREGTRVASIETGLAAAAAKLSQQEEQKSKKKKSAKRKLTPNTTSPSTSTSISAGTTSTSTTPASTTPASTTPASTSTASSQASQEGSSPEPPPESHSSSLADHEYTAAGTFTGAQAGRTSQPMAPGVFLTQRRPSASSPNNNTAAKGKRTKKGMATAKQRLGKILKIHRNGKLLL
B2: His-Phf2 Δ1 (residues 1-450 deleted) (domain or fragment, UniProt O75151 451-1096)
chain: PEVNTVASSDEVCDGDREKEEPPSPIEATPPQSLLEKVSKKKTPKTVKMPKPSKIPKPPKPPKPPRPPKTLKLKDGGKKKGKKSRESASPTIPNLDLLEAHTKEALTKMEPPKKGKATKSVLSVPNKDVVHMQNDVERLEIREQTKSKSEAKWKYKNSKPDSLLKMEEEQKLEKSPLAGNKDNKFSFSFSNKKLLGSKALRPPTSPGVFGALQNFKEDKPKPVRDEYEYVSDDGELKIDEFPIRRKKNAPKRDLSFLLDKKAVLPTPVTKPKLDSAAYKSDDSSDEGSLHIDTDTKPGRNARVKKESGSSAAGILDLLQASEEVGALEYNPSSQPPASPSTQEAIQGMLSMANLQASDSCLQTTWGAGQAKGSSLAAHGARKNGGGSGKSAGKRLLKRAAKNSVDLDDYEEEQDHLDACFKDSDYVYPSLESDEDNPIFKSRSKKRKGSDDAPYSPTARVGPSVPRQDRPVREGTRVASIETGLAAAAAKLSQQEEQKSKKKKSAKRKLTPNTTSPSTSTSISAGTTSTSTTPASTTPASTTPASTSTASSQASQEGSSPEPPPESHSSSLADHEYTAAGTFTGAQAGRTSQPMAPGVFLTQRRPSASSPNNNTAAKGKRTKKGMATAKQRLGKILKIHRNGKLLL
B3: His-Phf2 Δ4 (residues 820-1096 deleted) (domain or fragment, UniProt O75151 1-819)
chain: MATVPVYCVCRLPYDVTRFMIECDACKDWFHGSCVGVEEEEAPDIDIYHCPNCEKTHGKSTLKKKRTWHKHGPGQAPDVKPVQNGSQLFIKELRSRTFPSAEDVVARVPGSQLTLGYMEEHGFTEPILVPKKDGLGLAVPAPTFYVSDVENYVGPERSVDVTDVTKQKDCKMKLKEFVDYYYSTNRKRVLNVTNLEFSDTRMSSFVEPPDIVKKLSWVENYWPDDALLAKPKVTKYCLICVKDSYTDFHIDSGGASAWYHVLKGEKTFYLIRPASANISLYERWRSASNHSEMFFADQVDKCYKCIVKQGQTLFIPSGWIYATLTPVDCLAFAGHFLHSLSVEMQMRAYEVERRLKLGSLTQFPNFETACWYMGKHLLEAFKGSHKSGKQLPPHLVQGAKILNGAFRSWTKKQALAEHEDELPEHFKPSQLIKDLAKEIRLSENASKAVRPEVNTVASSDEVCDGDREKEEPPSPIEATPPQSLLEKVSKKKTPKTVKMPKPSKIPKPPKPPKPPRPPKTLKLKDGGKKKGKKSRESASPTIPNLDLLEAHTKEALTKMEPPKKGKATKSVLSVPNKDVVHMQNDVERLEIREQTKSKSEAKWKYKNSKPDSLLKMEEEQKLEKSPLAGNKDNKFSFSFSNKKLLGSKALRPPTSPGVFGALQNFKEDKPKPVRDEYEYVSDDGELKIDEFPIRRKKNAPKRDLSFLLDKKAVLPTPVTKPKLDSAAYKSDDSSDEGSLHIDTDTKPGRNARVKKESGSSAAGILDLLQASEEVGALEYNPSSQPPASPSTQEAIQGMLSMANLQASDSCLQTTWGAGQ

The experiment has as its target human recombinant cohesin tetramer with STAG1 (SMC1, SMC3, SCC1, STAG1) (human) (UniProt Q14683+Q9UQE7+O60216+Q8WVM7). The experiment in a line: pull-down; in vitro binding assay: cohesin complexes held on FLAG beads mixed with purified Phf2 at 4 °C for 1 h in 35 mM Hepes pH 7.5, 100 mM NaCl, 5% glycerol, 0.01% Tween; three washes; eluted with FLAG peptide; silver staining or Western blot; both purified. On the technique in general: A western blot detects proteins with antibodies after separation by electrophoresis.
As to B1, the binding entry is recorded as “no binding”.
As for B2, the entry is “binds”; as for B3, “binds”.
